Among all 1,100 compounds or so, about 70 (6%) were called active. Inconclusive results (about 22%) are left out. Calls follow the shape of the dose curve; as a rule, active = well fitted curve in the direction sought with a large enough effect; inconclusive = small, poorly fitted or top-dose-only effect, or another doubt; inactive = no such curve, though single readings can be large or run the other way. Some of the results follow.
Target: Polyunsaturated fatty acid lipoxygenase ALOX12 (Homo sapiens) (UniProt P18054)
Test: Confirmatory qHTS assay for inhibitors of human arachidonate 12S-lipoxygenase (ALOX12): Round 2
Conditions: purified human 12-LOX, xylenol orange absorbance; series mostly up to 125 µM; activity change, negative = inhibition: at the top concentration
In short: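 Activity was measured as hydroperoxide formation via ferrous/xylenol orange, taking the 573 nm to 405 nm absorbance ratio. Reaction: 40 uM arachidonic acid, 30 min at room temperature, after 15 min compound preincubation with 150 nM enzyme, pH 7.0 Hepes buffer.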
% is scaled to controls: 0 for no effect and ±100 for the full control effect; potency is read from the fitted curve at half-maximal effect.

UniProt P18054, sequence (P18054 whole entry, looked up): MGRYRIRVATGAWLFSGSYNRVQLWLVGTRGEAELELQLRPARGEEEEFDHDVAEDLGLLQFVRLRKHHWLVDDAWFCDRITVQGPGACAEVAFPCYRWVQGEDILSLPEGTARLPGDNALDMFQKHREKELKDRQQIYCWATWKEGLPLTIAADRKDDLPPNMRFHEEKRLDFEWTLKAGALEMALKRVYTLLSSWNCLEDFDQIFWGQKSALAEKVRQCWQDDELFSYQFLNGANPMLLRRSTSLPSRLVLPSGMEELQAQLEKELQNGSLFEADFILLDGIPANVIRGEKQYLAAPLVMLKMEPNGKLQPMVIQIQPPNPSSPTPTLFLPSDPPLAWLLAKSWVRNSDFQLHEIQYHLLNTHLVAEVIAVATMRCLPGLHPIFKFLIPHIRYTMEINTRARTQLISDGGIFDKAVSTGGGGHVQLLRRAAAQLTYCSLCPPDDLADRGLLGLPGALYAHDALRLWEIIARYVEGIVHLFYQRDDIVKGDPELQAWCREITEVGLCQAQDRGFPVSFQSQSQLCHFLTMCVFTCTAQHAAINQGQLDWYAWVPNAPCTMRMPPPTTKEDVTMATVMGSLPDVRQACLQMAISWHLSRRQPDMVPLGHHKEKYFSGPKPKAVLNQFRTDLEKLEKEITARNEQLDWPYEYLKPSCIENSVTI

Structure (SMILES)	activity change, negative = inhibition	Potency
CS(=O)(=O)NC[C@H]1O[C@@H](CO)[C@@H](O)C1N1CCN(c2ccccc2)CC1 (stereo partly drawn)	inactive: -13.4% [at 64.5 µM]	
CC(C)OCCCNC(=O)c1cc(C2CC2)nc2onc(C3CCCN3)c12 (stereo not drawn)	inactive: -8.53%	
CCOC(=O)C1=CN(CC(=O)Nc2ccccc2CC)S(=O)(=O)N=C1C	inactive: -15% [at 64.5 µM]	
CCOc1ccccc1CN1CCCCC12Cc1ccccc1CNC2=O (stereo not drawn)	inactive: -12.7%	
CN1CC(=O)N(C2CCCNC2)Cc2c1ncnc2N1CCN(Cc2ccccc2)CC1 (stereo not drawn)	inactive: -24.9%	
CC(C)[S+](=O)([O-])N1CCCC1c1nnc2n1CCNC2 (stereo not drawn)	inactive: 4.01%	
CCN1CCC2(Cc3ccccc3CN(C(=O)Cc3ccccc3)C2)C1 (stereo not drawn)	inactive: 1.51%	
COc1ccc2c(c1)CCCN2C1CNC1	inactive: -17.1% [at 233 µM]	
O=C1NC(=NC2CCCCC2)C2(CCN(Cc3ccc(F)cc3)C2)N1c1cccnc1 (stereo not drawn)	inactive: -11.1%	
CCC(C)CNc1ncnc2c1CN(C1CCCNCC1)C(=O)CN2C (stereo not drawn)	inactive: 1.31%	
CN(C)C(=O)N1CCCC(c2nnc3n2CCNC3)C1 (stereo not drawn)	inactive: -8.8%	
CCC1(N2CCN(C(=O)Nc3cc(C)ccc3OC)CC2)CCN(C(=O)C(C)C)C1 (stereo not drawn)	inactive: 5.23% [at 64.5 µM]	
CN(C)c1ccc(CN2CCn3c(nnc3C3CCNCC3)C2)cc1	inactive: -17.2%	
c1ccc2c(CN3CC(Oc4ccc5c(c4)OCO5)C3)cccc2c1	inactive: -24.4%	
COc1cccc(O)c1CN1CCCC12Cc1ccccc1CNC2=O (stereo not drawn)	inactive: -7.39%	
Cc1ccccc1N(C)C1CN(Cc2cccc3ccccc23)C1	inactive: -42.1%	
C1CNCC(c2nc(C3CCOCC3)no2)C1 (stereo not drawn)	inactive: -7.31% [at 64.5 µM]	
CC(=O)N1Cc2ccccc2CC2(CCCCN2Cc2ccccn2)C1 (stereo not drawn)	inactive: 28.6%	
O=C1c2ccccc2CN1C1CCN(Cc2ccsc2)CC1	inactive: -18.5%	
O=C1NCc2ccccc2CC12CCCN2Cc1ccsc1 (stereo not drawn)	inactive: -13.5%	
CNCc1ccc(N2CCCC2)cc1	inactive: 42.4% [at 233 µM]	

Structure (SMILES)	activity change, negative = inhibition	Potency
O=C(c1ccccc1)N1CCn2c(nnc2C2CCNCC2)C1	inactive: -13.7%	
CC(=O)Nc1ccc(CN2CCC(c3nc4ccc(C)cc4c(=O)[nH]3)CC2)cc1	inactive: -13.7%	
COc1ccc(N2CC3CCC(C2)N3Cc2ccc(C#N)cc2)cc1	inactive: -22.7%	
CNCc1sc2ccccc2c1C	inactive: -22.9% [at 233 µM]	
CN1CCN(CC(=O)N2c3ccccc3C(=O)Nc3cccnc32)CC1	inactive: -5.9%	
CN1CC(=O)N(C2CCCNC2)Cc2c(NCCCO)ncnc21 (stereo not drawn)	inactive: -12.2%	
CCCN1CCC2(CC1)Cc1ccccc1CN(C(=O)C(C)C)C2	inactive: 8.99%	
Cc1cccc(OCc2nc(CC(=O)Nc3ccc(C)c(C)c3)cs2)c1	inactive: -8.17%	
CC[C@](N)(CCC(=O)O)C(=O)O	inactive: -11.6%	
CN1CC(=O)N(C2CCCNCC2)Cc2c1ncnc2N1CCC(N2CCCC2)CC1 (stereo not drawn)	inactive: 4.55%	
COCCNC(=O)c1cc(C)nc2onc(C3CCCNC3)c12 (stereo not drawn)	inactive: -16.4%	
Cc1nn(-c2ccccn2)c(C)c1[C@@H]1C=C[C@@H](NC(=O)CSCC(=O)O)C1	inactive: 16.2% [at 64.5 µM]	
CCOCCCNc1ncnc2c1CN(C1CCCNC1)C(=O)CN2C (stereo not drawn)	inactive: -12.6%	
C/C(=C\c1ccccc1)CN1CCCCC12Cc1ccccc1CNC2=O (stereo not drawn)	inactive: -28.7%	
CN(C)c1ccc(CN2CC(Oc3ccc(F)c(F)c3)C2)cc1	inactive: -26.4%	
Cc1ccc(CN2CCCCC23Cc2ccccc2CNC3=O)cc1C (stereo not drawn)	inactive: -25.9%	
O=C1NCc2ccccc2CC12CCN(Cc1c(Cl)cncc1Cl)C2 (stereo not drawn)	inactive: -0.846%	
O=C1c2ccccc2CN1C1CCN(Cc2ccc(C(F)(F)F)cc2)CC1	inactive: -28.4%	
CCCC(=O)N1Cc2ccccc2CC2(CCCN(CC3CCNC3)C2)C1 (stereo not drawn)	inactive: 3.92%	
CCNC(=O)[C@@H]1C[C@H](n2cc(CN(C)C(=O)Nc3ccc(C)cc3)nn2)CN1	inactive: -6.25% [at 64.5 µM]	
CC(=O)N1CCCN(c2ncc(S(C)(=O)=O)c(C3CCCNC3)n2)CC1 (stereo not drawn)	inactive: -27.9% [at 64.5 µM]	

Structure (SMILES)	activity change, negative = inhibition	Potency
CC(=O)N1CCN(c2ccc(Cl)nn2)C(=O)C1	inactive: -18.9%	
NC(C(=O)N1CCC2(CC1)CN(C(=O)Cc1cccc(Cl)c1)CCO2)c1ccccc1 (stereo not drawn)	inactive: -4.66%	
CN1CC(=O)N(c2ccc(Cl)cc2)Cc2c(NC3CCNCC3)ncnc21	inactive: -20.9%	
C=CCN(C)C(=O)[C@@H](C)C1CC[C@@]2(C)Cc3sc(NC(=O)C4CC4)nc3[C@@H](C)[C@@H]2[C@H]1O (stereo partly drawn)	inactive: 15.5% [at 64.5 µM]	
O=C(c1cc(C2CC2)nc2onc(C3CCCNC3)c12)N1CCCCC1 (stereo not drawn)	inactive: -15.8%	
O=C1NCc2ccccc2CC12CCN(Cc1ccnc3ccccc13)CC2	inactive: -20.7%	
CN1CC(=O)N(C2CCNCC2)Cc2c1ncnc2N1CCc2ccccc2C1	inactive: -19%	
CNc1oc(-c2ccc3cc[nH]c3c2)nc1C#N	inactive: 6.32% [at 64.5 µM]	
CC1Oc2ccc(NC(=O)c3ccc(F)cc3)cc2CN(Cc2ccc3c(c2)OCO3)C1=O (stereo not drawn)	inactive: -13.2% [at 64.5 µM]	
CN(C)C(=O)N1CCn2c(nnc2-c2cncc(Br)c2)C1	inactive: -24.9%	
CN1CC(=O)N(C2CCCNCC2)Cc2c1ncnc2N1CCCC(O)C1 (stereo not drawn)	inactive: -10.7%	
CCCC(=O)N1Cc2ccccc2CC2(CCCCN2Cc2ccccn2)C1 (stereo not drawn)	inactive: 53.3%	
Cc1ccc(-c2ncc(C(=O)Nc3ccc(F)cc3C)c(-c3ccncc3)n2)cc1	inactive: -15.8% [at 64.5 µM]	
NCCc1n[nH]c(=O)n1-c1ccc(Cl)cc1	inactive: -0.16% [at 64.5 µM]	
CN1CC(=O)N(C2CCCC2)Cc2c(NC3CCNCC3)ncnc21	inactive: -27%	
O=C(c1ccc(C(F)(F)F)cc1)N1CC(Oc2ccc3c(c2)OCO3)C1	inactive: -18.7%	
C[S+](=O)([O-])N1CC2ON=C(C(=O)NCCc3ccc(Cl)cc3)C2C1 (stereo not drawn)	inactive: -10.9%	
COc1ccc(-c2cc(-c3cccc(CO)c3)cn3cncc23)cc1		active: 28.2 µM
Cc1ccc(-c2cc(-c3ccc(C)o3)nc(N)c2C#N)cc1		active: 3.06 µM
O=C1NCc2ccccc2CC12CCCN2Cc1cnc2ccccc2c1 (stereo not drawn)	inactive: -20.5%	
O=c1c(CCc2ccccc2)nc2cnc(Oc3ccccc3)nc2n1C1CC1	inactive: -21.2%	

Structure (SMILES)	activity change, negative = inhibition	Potency
CN(C)c1ccc(CN2CCn3c(nn(-c4ccc(Cl)cc4)c3=O)C2)cc1	inactive: -26.9%	
CCOC(=O)C1=C(C)N=C2SC=C(CC(=O)NCc3ccco3)N2C1c1cccc([N+](=O)[O-])c1 (stereo not drawn)	inactive: -3.42% [at 64.5 µM]	
c1cc2c(cc1OC1CN(CC3CCCCC3)C1)OCO2	inactive: -23.2%	
COc1ccc(-c2cn(C)c(=O)n3cc(COc4ccc(C(=O)O)cc4)nc23)c(C)c1	inactive: -13.1% [at 64.5 µM]	
CN1CCC2(Cc3ccccc3CN(C(=O)CCN)C2)C1 (stereo not drawn)	inactive: -19.4%	
CN1CC(=O)N(C2CCNCC2)Cc2c(NC3CCCCC3)ncnc21	inactive: -13%	
COc1ccc(CNc2ncnc3c2CN(C2CCNCC2)C(=O)CN3C)cc1OC	inactive: -22.9%	
CS(=O)(=O)N1CCn2cc(C(=O)Nc3ccc(Cl)cc3Cl)nc2C1	inactive: -2.96%	
O=C(NCCc1c[nH]c2ccccc12)c1ccccc1C1CCNC1 (stereo not drawn)	inactive: -9.82% [at 64.5 µM]	
COCc1nc(NCCCc2c(C)noc2C)cc(C2CC(N)C2)n1 (stereo not drawn)	inactive: -7.49% [at 64.5 µM]	
CCOC(=O)C1CCN(C(=O)c2cc(Cn3ccnc3C(C)C)[nH]n2)CC1	inactive: -9.77% [at 64.5 µM]	
COc1ccc(-c2cc3nccn3c(Nc3ncccc3C(N)=O)n2)cc1OC	inactive: -15%	
O=C1NCc2ccccc2CC12CCN(Cc1c[nH]c3ccccc13)CC2	inactive: -25.1%	
CNc1oc(-c2cccc(Cl)c2Cl)nc1C#N	inactive: -0.907% [at 64.5 µM]	
CC(=O)N1CCC2(CC1)CN(C(=O)Cc1csc(N)n1)Cc1ccccc1O2	inactive: 0.398%	
O=C(c1cc(C2CC2)nc2onc(C3CCNCC3)c12)N1CCCCC1	inactive: -14%	
CN1CC(=O)N(C2CCCNCC2)Cc2c1ncnc2N1CCCC(F)C1 (stereo not drawn)	inactive: -9.99%	
CCOc1cccc(CN2CCCC23Cc2ccccc2CNC3=O)c1 (stereo not drawn)	inactive: -19.3%	
O=C1NCc2ccccc2CC12CCCN(Cc1ccc(F)cc1O)C2 (stereo not drawn)	inactive: -4.98%	
O=C(NC1CC1)c1cc(C2CC2)nc2onc(C3CCNC3)c12 (stereo not drawn)	inactive: -17.6%	

Reference: PubChem BioAssay AID1671189 (National Center for Advancing Translational Sciences (NCATS), 2021)
